# From paper PMC7819943, “Rice protein-binding microarrays: a tool to detect cis-acting elements near promoter regions in rice”
# The other results are listed elsewhere or left out.
# Target: T1, OsWOX13 (Oryza sativa, UniProt Q5QMM3 1-267)
# T1 sequence: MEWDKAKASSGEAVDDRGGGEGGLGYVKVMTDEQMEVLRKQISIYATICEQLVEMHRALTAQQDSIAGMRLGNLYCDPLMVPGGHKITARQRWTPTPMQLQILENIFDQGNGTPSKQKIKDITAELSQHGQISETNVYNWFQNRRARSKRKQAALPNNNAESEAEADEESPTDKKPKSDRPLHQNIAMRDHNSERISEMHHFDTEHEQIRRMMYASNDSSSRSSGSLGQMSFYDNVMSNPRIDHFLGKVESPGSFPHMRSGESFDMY
# Assay: protein-binding microarray (RPBM); PBS, 2% BSA, 51.3 ng/ul salmon testes DNA, 50 uM zinc acetate, 200 nM TF, 25 C, 1 h; high values mean tight binding
# Conditions: protein: recombinant; tags: N-terminal polyhistidine and DsRed monomer fusion (pET32a); label: CyDye5-dUTP incorporated in the synthesized complementary strand; 3' TTTTT single-stranded linker to array surface; dsDNA, one strand shown
# Outline: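 Transcription factors were each fused at the N-terminus to a polyhistidine tag plus DsRed and expressed in E. coli BL21-CodonPlus before Ni–NTA purification. Binding to a double-stranded custom Agilent array was carried out with 200 nM protein at 25 °C for 1 h in PBS, 2% BSA, salmon testes DNA and 50 µM zinc acetate. The binding signal is per-feature fluorescence intensity, in arbitrary units, on an Axon 4000B scanner.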
row,Sequence,binding signal
1,CGAATTTCAGTTATTTCCTAATTGTATTTCTATATGGACTCGGAGTCACCTAGTGCAG,6210 fluorescence intensity (a.u.)
2,TCTTGATTATTACATCCCAAAATTACTGAATCCCCTCCTCCGGAGTCACCTAGTGCAG,36300 fluorescence intensity (a.u.)
3,CTGGGATTAGAGTGCTTGTCAATGGTATTTCATGGATTTTCGGAGTCACCTAGTGCAG,3340 fluorescence intensity (a.u.)
4,TTCGTCAATTAACAATTTAATACTCCCTCCGTTTTATAGTCGGAGTCACCTAGTGCAG,17700 fluorescence intensity (a.u.)
5,CTAGTAATTACAAACATTGGAACTGAGTTTTGGTTGGGGTCGGAGTCACCTAGTGCAG,23800 fluorescence intensity (a.u.)
6,ACAATCAAACGGAAATTACACTGCAAATCAGCATATCAGGCGGAGTCACCTAGTGCAG,5260 fluorescence intensity (a.u.)
7,ATGTGATGGAAAAGTTAGAAGTTTGTGTGTAGGAAAGTTTCGGAGTCACCTAGTGCAG,4790 fluorescence intensity (a.u.)
8,CCAATTTGACCACGAAATTTACTCACTCGGAATTCAGAAGCGGAGTCACCTAGTGCAG,3380 fluorescence intensity (a.u.)
9,AATAAAATTTTCTCTTAAACTACTCATCCGATCTTACGATCGGAGTCACCTAGTGCAG,3200 fluorescence intensity (a.u.)
10,GGTCATGAGATTACTGTTAACTAATCCACCCAAAACGTAGCGGAGTCACCTAGTGCAG,4830 fluorescence intensity (a.u.)
11,GAGAATTGATAACATAGGCAGTTTTGACAAGGCTGTAAGTCGGAGTCACCTAGTGCAG,20100 fluorescence intensity (a.u.)
12,GTCCTTCCCCTGATTATAATACAGCAACTTAATGCCGGTTCGGAGTCACCTAGTGCAG,5070 fluorescence intensity (a.u.)
13,CCTAATTATTCTCCTCAATTACAGAGTTTGTTACATGCATCGGAGTCACCTAGTGCAG,29700 fluorescence intensity (a.u.)
14,AGAGGAAATACGACAGCCTTGATTGTTTTCTCTCTCACTCCGGAGTCACCTAGTGCAG,3760 fluorescence intensity (a.u.)
15,AAAAGAGTTATACTTAATTAATCACACTCTCCGATTAAACCGGAGTCACCTAGTGCAG,4760 fluorescence intensity (a.u.)
16,GGATTTGATCGATTGGATTTCGATTTGGCCCGCGATTTGGCGGAGTCACCTAGTGCAG,4010 fluorescence intensity (a.u.)
17,GCTGATCGAATTAATTTACACATATATAGATAGATAGATACGGAGTCACCTAGTGCAG,29400 fluorescence intensity (a.u.)
18,GCTTAATTAATGGGCCTTTCAAGTGGTTCCACGAAGGCCCCGGAGTCACCTAGTGCAG,25300 fluorescence intensity (a.u.)
19,ATTCCGTACTAATTATTAACATATGCCAAATTTTAAAGAACGGAGTCACCTAGTGCAG,6540 fluorescence intensity (a.u.)
20,TGTTTTGATTGTTTCTTATTACTCCCTCCGATTATAAATACGGAGTCACCTAGTGCAG,25500 fluorescence intensity (a.u.)
21,TCCTCACACGGGTTATGATTGGTAAAATTGCTCTAAACCCCGGAGTCACCTAGTGCAG,17600 fluorescence intensity (a.u.)

row,Sequence,binding signal
1,TAGGATTAATAATCGATTTATTTTGCTGACATCTTGGGAGCGGAGTCACCTAGTGCAG,8200 ± 89.1 fluorescence intensity (a.u.)
2,TAGTATAATTGATTTTCCACTTAATATTTTAGCAACTACACGGAGTCACCTAGTGCAG,45100 fluorescence intensity (a.u.)
3,TGCCAATTAACGTGTGCATCTTGTATCACACATTTCTCAACGGAGTCACCTAGTGCAG,10300 fluorescence intensity (a.u.)
4,CAATGATTGCGGTTCCTTCCTCTAGCTCCTTAACGGTGATCGGAGTCACCTAGTGCAG,47200 fluorescence intensity (a.u.)
5,CAAATATACTGATTGTATGCTTCCAGTAATTAAACCATTTCGGAGTCACCTAGTGCAG,12200 fluorescence intensity (a.u.)
6,CGAATAACCAATCAATCAATATACAGTCATTGACAACGCACGGAGTCACCTAGTGCAG,43200 fluorescence intensity (a.u.)
7,TTTTCAGAAAATGATTAGCAACGAGCTTTGCCTTTGATTCCGGAGTCACCTAGTGCAG,5630 fluorescence intensity (a.u.)
8,CAATAGTAATTGCTAGTAGATGATGATGTGGTATATTTGCCGGAGTCACCTAGTGCAG,16000 fluorescence intensity (a.u.)
9,GCTAATACTTAATTAATCACGCGCTAATAGACCGCTCCGTCGGAGTCACCTAGTGCAG,24500 fluorescence intensity (a.u.)
10,GATTATAAATTACAAGTGTTAATTTGATGAATTTTGTTATCGGAGTCACCTAGTGCAG,19500 fluorescence intensity (a.u.)
11,GGTGGGTGGGCATTTGCAACAAAATAACTTACGGGGTGGACGGAGTCACCTAGTGCAG,3370 fluorescence intensity (a.u.)
12,AATTTACGATTGATTATTCATTCAGTGAGGCGCATGCGGTCGGAGTCACCTAGTGCAG,32700 fluorescence intensity (a.u.)
13,AATGATAACTATTTAGATGACATACAAACAACAGGGGATGCGGAGTCACCTAGTGCAG,12400 fluorescence intensity (a.u.)
14,TGTATAATTAAGGAGCACCAAATGAGCATTGTGTGTGCGCCGGAGTCACCTAGTGCAG,10800 fluorescence intensity (a.u.)
15,GTTATAATTTCTTAGGGTCACATTATATTTGCCATCATTTCGGAGTCACCTAGTGCAG,4430 fluorescence intensity (a.u.)
16,TTGACAGCTTGATTGTTAGATGATATGTACAAAGGAATATCGGAGTCACCTAGTGCAG,38500 fluorescence intensity (a.u.)
17,GTCTGTAAATTGCGAACAGTTATTATAACTGAACGTAGAACGGAGTCACCTAGTGCAG,5090 fluorescence intensity (a.u.)
18,TTGTAATTTAGCACTTAGGGTGCTTGTGTCTGCACTGCAGCGGAGTCACCTAGTGCAG,4320 fluorescence intensity (a.u.)
19,CCGATTGAGATAACTTCTAACATCAGTGACCTTTGCTTAGCGGAGTCACCTAGTGCAG,7790 fluorescence intensity (a.u.)
20,CTAATTTTAACCAAAATTATAATTTTAACGTAGACCGAGCCGGAGTCACCTAGTGCAG,29000 fluorescence intensity (a.u.)
21,TAGATGAAATGGGTTGGGTTGATTTGGGTTGAAATATGATCGGAGTCACCTAGTGCAG,6400 fluorescence intensity (a.u.)
